In the antibiotic and cytotoxicity screens of Wong et al. (2023):
The other results are listed elsewhere or left out.

tested on: HepG2; assay: cytotoxicity call (relative viability < 0.9); conditions: 10 µM

SMILES	cytotoxicity call
C[C@H]1CN([C@@H](C)CO)C(=O)Cc2cc(NC(=O)Nc3ccccc3)ccc2O[C@@H]1CN(C)C(=O)Nc1ccc(C(F)(F)F)cc1	inactive
C[C@@H]1CN([C@@H](C)CO)C(=O)c2cc(NC(=O)CCC(F)(F)F)ccc2O[C@@H](C)CCCCO[C@H]1CN(C)Cc1ccc(Cl)c(Cl)c1	inactive
COc1ccc(NC(=O)Nc2cccc3c2O[C@H](CN(C)C(=O)Nc2cccc4ccccc24)[C@@H](C)CN([C@@H](C)CO)C3=O)cc1	inactive
CCOC(=O)c1cn[nH]c1N	inactive
Nc1ccon1	inactive
CCCN(C)C[C@H]1OCCCC[C@H](C)Oc2ccc(NC(=O)Cc3ccccc3)cc2C(=O)N([C@@H](C)CO)C[C@H]1C	inactive
O=C(C[C@H]1CC[C@H]2[C@@H](COC[C@@H](O)CN2Cc2cccc(C(F)(F)F)c2)O1)NCCc1ccncc1	inactive
Cc1cc(C(=O)Nc2cccc3c2O[C@H](CN(C)C(=O)Nc2ccccc2)[C@H](C)CN([C@@H](C)CO)C3=O)n(C)n1	inactive
CCNC(=S)N1CCCC[C@@H]1CO	inactive
C[C@@H]1CN([C@@H](C)CO)C(=O)CCCn2cc(nn2)CO[C@@H]1CN(C)S(=O)(=O)c1ccc2ccccc2c1	inactive
C[C@H]1CN([C@@H](C)CO)C(=O)c2cccc(NC(=O)Nc3ccccc3)c2O[C@@H]1CN(C)CC1CCCCC1	inactive

tested on: S. aureus RN4220; assay: growth inhibition call (relative growth <= 0.2); conditions: 50 µM

SMILES	growth inhibition call
CNC(=O)C[C@@H]1CC[C@@H]2[C@H](COC[C@H](O)CN2C(=O)Nc2ccc3c(c2)OCO3)O1	inactive
COCC#Cc1cnc2c(c1)C(=O)N([C@@H](C)CO)C[C@H](C)[C@@H](CN(C)C(=O)Nc1ccc(OC)cc1)O2	inactive
CN(C)CC(=O)N[C@H]1CC[C@H](CC(=O)NCCN2CCCCC2)O[C@H]1CO	inactive
Cn1cnc(S(=O)(=O)N[C@@H]2CC[C@@H](CC(=O)Nc3ccccc3)O[C@H]2CO)c1	inactive
C[C@@H]1CN([C@@H](C)CO)C(=O)c2c(c3ccccc3n2C)-c2ccccc2CO[C@@H]1CN(C)Cc1ccccc1C(F)(F)F	inactive
COc1ccccc1C#Cc1ccc2c(c1)O[C@H](CN(C)Cc1ccncc1)[C@H](C)CN([C@@H](C)CO)S2(=O)=O	inactive
C[C@@H]1CN([C@H](C)CO)C(=O)c2cc(NC(=O)Nc3ccc4c(c3)OCO4)ccc2O[C@@H](C)CCCCO[C@H]1CN(C)Cc1ccc(C(F)(F)F)cc1	inactive
COc1ccc(-c2cnc3c(c2)C(=O)N([C@@H](C)CO)C[C@@H](C)[C@H](CN(C)S(=O)(=O)c2ccc(OC)cc2)O3)cc1	inactive
C[C@H]1CN([C@@H](C)CO)C(=O)c2cc(-c3ccc(C#N)cc3)cnc2O[C@H]1CN(C)C(=O)Nc1ccc(C(F)(F)F)cc1	inactive
C[C@H](CO)N1C[C@H](C)[C@H](CN(C)S(C)(=O)=O)OCc2cn(nn2)CCCC1=O	inactive
C[C@@H]1CN([C@H](C)CO)C(=O)c2cc(NS(=O)(=O)c3ccc(F)cc3)ccc2O[C@@H](C)CCCCO[C@@H]1CN(C)C(=O)NC1CCCCC1	inactive
COc1ncccc1N	inactive
C[C@H]1CN([C@@H](C)CO)C(=O)Cc2cc(NC(=O)Cc3cn(C)c4ccccc34)ccc2O[C@H]1CN(C)Cc1ccc(C(=O)Nc2ccccc2N)cc1	inactive
C[C@H]1CN([C@@H](C)CO)C(=O)Cc2cc(NC(=O)Nc3cccc4ccccc34)ccc2O[C@@H]1CN(C)S(=O)(=O)c1ccc(Cl)cc1	inactive
CC(C)(C)[S@@](=O)N1Cc2cc(C(=O)N[C@H]3CCN(Cc4ccccc4)C3)nc(-c3cccc(-c4cccnc4)c3)c2[C@H]1CCO	inactive
C[C@@H]1CN([C@@H](C)CO)C(=O)c2cccc(NC(=O)Nc3ccc(F)cc3)c2O[C@H]1CN(C)C(=O)Nc1cccc2ccccc12	inactive
COc1ccc(NC(=O)N(C)C[C@@H]2OCCCC[C@H](C)Oc3ccc(NC(=O)CCC(F)(F)F)cc3C(=O)N([C@@H](C)CO)C[C@@H]2C)cc1	inactive
C[C@@H]1CN([C@H](C)CO)C(=O)c2cc(NC(=O)CCN3CCOCC3)ccc2O[C@H]1CN(C)S(C)(=O)=O	inactive
C[C@H](CO)N1C[C@H](C)[C@@H](CN(C)C(=O)Cc2ccncc2)Oc2cc(-c3cncnc3)ccc2S1(=O)=O	inactive
C[C@@H]1CN([C@@H](C)CO)C(=O)c2c(c3ccccc3n2C)-c2ccccc2CO[C@@H]1CN(C)C(=O)Nc1cccc(F)c1	inactive
